Assay results as given in the supplement of paper PMC10126150.
Sequences with one replicate were seen in a single cluster, so their values are uncertain.

tested on: ATP; assay: switch fluorescence ratio, 500 uM ATP over buffer (Cy3 cluster intensity, sum of 5 cycles each) (fold (ratio)); higher = stronger signal-on switching upon ATP binding; sequences stand for … in TCGTCGGCAGCGTCAGATGTGTATAAGAGACAGTTTTTTTTTTTTTTTTTTTTTTTTT…TC; settings: aptamer strand: ATP DNA aptamer (quencher-CACCTGGGGGAGTATTGCGGAGGAAGG + anchor), 100 nM annealed; ATP concentration: 500 uM; one replicate
Method in brief: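 Between each of five buffer/ATP cycles, the flow-cell was stripped with NaOH and re-annealed. Each cycle imaged Cy3-labelled switching-strand clusters, annealed to 100 nM quencher-labelled ATP aptamer on a modified Illumina MiSeq flow-cell, first in selection buffer and then after 15 min with 500 uM ATP at 22 °C. The fluorescence ratio is summed target-cycle over summed buffer-cycle Cy3 intensity per cluster, averaged per switch-domain sequence, with clusters outside 100-1000 RFU excluded.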
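Further: ATP exposure 15 min at 22 °C before imaging.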

Row | Sequence | switch fluorescence ratio
1 | GAGTTTAAC | 1.13
2 | TAATGCTGGA | 1
3 | ACACGGTTGC | 1.08
4 | GAGTCAAAGA | 0.994
5 | ATCGTGCGCT | 0.994
6 | GAGAGGATCT | 0.968
7 | ATAAACTAAT | 0.974
8 | TGCACGCCAC | 2.11
9 | GATGTACGCG | 0.927
10 | CTATCTTGGG | 0.952
11 | CACGCTTGGT | 1.04
12 | CTCAGGGACG | 0.897
13 | CGTAGTAAGG | 1.14
14 | TTATTTGGAA | 1.02
15 | CACGCTACAA | 1.3
16 | TAGCGGGGGT | 0.939
17 | ATCACATGC | 1.06
18 | TCTGCAAGGT | 1.24
19 | GGGTAGTTGA | 1.02
20 | TCGAGTATGC | 1.05
21 | GAGGCACGTA | 1.03
22 | TCCCTTCTTG | 1
23 | TGGAGACGCT | 1.01
24 | ATGTGATGTC | 0.984
25 | GCATAATGTG | 0.976
26 | GCACTCCGTT | 1.25

Row | Sequence | switch fluorescence ratio
27 | GAAAGGCCTC | 0.978
28 | CTAACAGGAT | 0.997
29 | GAGAGTTT | 1
30 | TCTGGTGGC | 0.966
31 | TACGGGTCCG | 1
32 | CATTATACGT | 1.04
33 | AATTGTCCGG | 0.967
34 | TCTCAACACG | 1
35 | AGTGAGATTA | 0.989
36 | CCCCTCATGA | 1
37 | AGGACAGCGA | 1.12
38 | ACTTCTTGCC | 1.07
39 | GGTCGTTAGT | 1
40 | TAATACTTTC | 1.03
41 | CTTGATGGCC | 1.03
42 | AGAAGGCCAA | 0.959
43 | TTATTTAT | 0.996
44 | AAACCTAAAA | 0.978
45 | ACACGCGGGG | 1.03
46 | GACTGCACTC | 1.76
47 | TAAAGCGTAA | 1.01
48 | TTAGAGACTA | 1.02
49 | AAGCTTGTGG | 0.98
50 | ATTTACTTC | 1.06
51 | GCTATCCAGA | 1.04
52 | AGTAAATAAG | 1.01

Row | Sequence | switch fluorescence ratio
53 | TGCCATATTC | 1.02
54 | CACCGACTGG | 1.1
55 | GGTTTGGAGG | 1.01
56 | AGGTACGTG | 0.981
57 | TAATGCAGTA | 1.04
58 | CAGGGAGGGC | 0.954
59 | TGTCCAATG | 0.964
60 | GGTCCCCCCT | 1.05
61 | TCCCGGGGTT | 1.05
62 | CTTCTTTTC | 1
63 | GGGTAAAGCC | 0.976
64 | TCGGGTGCAA | 1.68
65 | TGCACGCAGA | 1.12
66 | ATCTCTCTTT | 0.982
67 | AGAGTGACCT | 1.21
68 | ATCTGCAAGA | 1.06
69 | GCCTATGGTA | 0.985
70 | TGAGGCAGCC | 1.06
71 | CAATTTAAAA | 1.02
72 | ACAAGAAACC | 1.08
73 | TCTTTATAGA | 0.951
74 | CATTTTAT | 0.985
75 | CTATGGCTCC | 1.03
76 | AATCGTATAA | 0.967
77 | TAGCATTGTA | 0.988
78 | GCGCAACACC | 1.57

Row | Sequence | switch fluorescence ratio
79 | ATAGGTGCG | 1
80 | AGCGTCAAAG | 1.02
81 | ACGCATGTCA | 1.05
82 | AGAAGTTATT | 0.999
83 | GAAGCTCAAC | 1.57
84 | TTAAAACATG | 1.02
85 | AGCGTGGGGT | 1.03
86 | GGATGAGGAT | 0.95
87 | ACAACCCATA | 1.09
88 | TTTCAGCACG | 1.04
89 | ATACATTAAG | 1.11
90 | ATGTACTTTG | 1.09
91 | CGTATTGGTA | 0.982
92 | TTCCCCAAGT | 1.05
93 | CCCGGTCCCA | 1.02
94 | AAGGAGCAGC | 0.783
95 | GACTCTCAAC | 1.06
96 | AAATTACATG | 1.04
97 | TTTTAAGCCA | 1.08
98 | TTACCGTCG | 1.06
99 | GAGTCAGTTC | 1.06
100 | TCACAGGGTC | 1.03
101 | TCAAATTCTA | 0.923
102 | GCTCTGTGTC | 1.14
103 | GTCGATGCAG | 0.994
104 | AAAGACCGGA | 1.01

Row | Sequence | switch fluorescence ratio
105 | CTTCTTGGCA | 1.09
106 | CATCGTCTAA | 0.999
107 | TTTCCATTAG | 1.06
108 | CTAGAGAATA | 0.985
109 | GTTTTTAGCG | 0.952
110 | TTCGTAATG | 1.04
111 | GGTGCACGGA | 1.01
112 | TGGAGAACCG | 0.928
113 | TGATCGTATA | 1
114 | AACGGTTTCG | 1.49
115 | TTTCCAGTCC | 0.989
116 | CCCGTTAGCA | 1.13
117 | GAGCCTGTTC | 0.961
118 | GGGCGAAGGT | 0.977
119 | CGTGTGAGCC | 0.97
120 | TTTGCCTATT | 1.04
121 | GGGATTCAGG | 1.46
122 | TAGGCGGCTG | 0.987
123 | AATAAGTTCT | 0.935
124 | GATGTAACTA | 1.02
125 | GTCGGGAAGC | 1.05
126 | GGTACTAGCA | 1.01
127 | TGTATAACAA | 1
128 | CCAGCGTTCT | 1.05
129 | CACGTTCCTA | 1.05
130 | TCTCCAATCT | 1.18

Row | Sequence | switch fluorescence ratio
131 | ACAGGGCCGC | 1.05
132 | TACCTATTGA | 1.03
133 | ATGGTAGATT | 1.01
134 | GGCCAGGCTG | 1.04
135 | CCACTCCTTT | 1.02
136 | CCACTGTCGC | 1.12
137 | TTCTCTGAAA | 1.11
138 | ATGGTACGAG | 1.02
139 | AAAAGGCAAC | 1.01
140 | TAATTTCAGT | 0.99
141 | AAGGAGCTGG | 0.981
142 | CGCGTTACCA | 1.01
143 | TTCCCGTGTA | 1.02
144 | GGTGCTTAAA | 1.02
145 | TTAGCACTCC | 1.54
146 | ACTTTATATA | 1.07
147 | TCGGGTGGAG | 0.931
148 | CTAAATGTTA | 0.985
149 | GAGGGTCAGT | 0.959
150 | TCGAGGAGAC | 1.06
151 | CCGTTAAGGG | 0.976
152 | CTTTCATCGT | 1.01
153 | AACGGATTAA | 1.06
154 | CCGAAGGGAC | 1.78
155 | ACTGGCCCCC | 1.03
156 | ATGTATTGTA | 0.992

Row | Sequence | switch fluorescence ratio
157 | TCCTGTTGTT | 1.15
158 | TCTACTGGTG | 1.23
159 | AGTCGGCAGG | 1.02
160 | TCATGGGTGT | 1.03
161 | CTCTAGTGTT | 1
162 | TTGTTACATT | 1.01
163 | ACCGTCCAGC | 1.2
164 | GGTTCGTTCG | 0.983
165 | AAAGAGGGGC | 0.993
166 | AGGTTGAACT | 1
167 | CGGCGTACAA | 1.02
168 | GAATCCCTGG | 1.08
169 | GGAATCGAGT | 1.02
170 | AATCTACATC | 0.999
171 | CAAGAGTTAA | 0.981
172 | TGGTTTCACA | 1.04
173 | CGCTGTGTCT | 1.02
174 | ATAACGGGAG | 1.01
175 | GTTCTCAACC | 0.993
176 | TTAAATCAGT | 0.982
177 | GACTTCCGA | 1.99
178 | CAGCGCTTTC | 1.22
179 | GATAATTAGC | 0.946
180 | CGAGCTCAAG | 1.03
181 | TCTGCCAGG | 1.42
182 | CATGACAGCG | 1.07

Row | Sequence | switch fluorescence ratio
183 | GGGGACGTGC | 1
184 | GACTATCTCT | 1
185 | AGATGCATCC | 1.01
186 | CGCAGGGTTG | 1.06
187 | ACTGAGTAGT | 0.988
188 | TATCCCAACG | 1.03
189 | ACATCCACGT | 1.43
190 | GGTTCCAGTA | 1.01
191 | CAGGAGGCAA | 2.69
192 | AGACTAATCT | 1.01
193 | GGGAATTGGA | 0.953
194 | CTCATCGTTA | 1.05
195 | TCGTTAAGGG | 1.12
196 | AAGCCGACTT | 0.975
197 | ATGTCCGTTG | 1.01
198 | CGGTGTTGG | 1.01
199 | TTGGGTCT | 1.05
200 | TCGCTCACTA | 1.03
201 | ACCCGAAGGT | 1.02
